Results from patent US11247989B2 (priority 2017, dated 2022).

Test system: MYC
Assay: cells
Conditions: Homo sapiens, MV4-11, 4 h, read-out: Myc IC50 (μM)

CNC(=O)N1CCc2c(c(-c3cccc4c3CC(=O)N(c3cnn(C)c3)C4)nn2C2CCOCC2)C1 [Example 37, N-methyl-3-(2-(1-methyl-1H-pyrazol-4-yl)-3-oxo-1,2,3,4-tetrahydroisoquinolin-5-yl)-1-(tetrahydro-2H-pyran-4-yl)-6,7-dihydro-1H-pyrazolo[4,3-c]pyridine-5(4H)-carboxamide]
IC50: 0.164 µM

COc1ccc(-c2ccc3ccn(-c4nn(C5CCOCC5)c5c4CN(C(C)=O)CC5)c3c2)cc1 [Example 19, 1-(3-(6-(4-methoxyphenyl)-1H-indol-1-yl)-1-(tetrahydro-2H-pyran-4-yl)-1,4,6,7-tetrahydro-5H-pyrazolo[4,3-c]pyridin-5-yl)ethan-1-one]
IC50: 1.09 µM

CC(=O)N1CCc2c(c(-c3cccc4c3CC(=O)N(C3CCC3)C4)nn2C2CCOCC2)C1 [Example 175]
IC50: 0.122 µM

CC(=O)N1CCc2c(c(-c3cccc4c(C)c(-c5cnn(C)c5)ncc34)nn2C2CCOCC2)C1 [Example 33, 1-(3-(4-methyl-3-(1-methyl-1H-pyrazol-4-yl)isoquinolin-8-yl)-1-(tetrahydro-2H-pyran-4-yl)-6,7-dihydro-1H-pyrazolo[4,3-c]pyridin-5(4H)-yl)ethanone]
IC50: 0.0988 µM

CC(=O)N1CCc2c(c(-c3cccc4cc(N5CCC(F)(F)C5)ncc34)nn2C2CCOCC2)C1 [Example 125]
IC50: 0.925 µM

CNC(=O)N1CCc2c(c(-c3cccc4c(C)c(-c5cnn(C)c5)ncc34)nn2C2CCOCC2)C1 [Example 34, N-methyl-3-(4-methyl-3-(1-methyl-1H-pyrazol-4-yl)isoquinolin-8-yl)-1-(tetrahydro-2H-pyran-4-yl)-6,7-dihydro-1H-pyrazolo[4,3-c]pyridine-5(4H)-carboxamide]
IC50: 0.0592 µM

CC(=O)N1CCc2c(c(-c3cccc4cc(N5CCC(F)C5)ncc34)nn2C2CCOCC2)C1 (centres unmarked) [Example 115]
IC50: 0.942 µM

CC(=O)N1CCc2c(c(-c3ccc(C)c4cc(-c5cnn(C)c5)ncc34)nn2C2CCOCC2)C1 [Example 9, 1-(3-(5-methyl-3-(1-methyl-1H-pyrazol-4-yl)isoquinolin-8-yl)-1-(tetrahydro-2H-pyran-4-yl)-6,7-dihydro-1H-pyrazolo[4,3-c]pyridin-5(4H)-yl)ethanone]
IC50: 0.0321 µM

CC(=O)N1CCc2c(c(-n3ccc4ccc(-c5cnn(C)c5)cc43)nn2C2CCOCC2)C1 [Example 147]
IC50: 0.263 µM

COc1ccc(-c2nc3cccc(-c4nn(C5CCOCC5)c5c4CN(C(C)=O)CC5)c3o2)cc1 [Example 159]
IC50: 1.58 µM

CC(=O)N1CCc2c(c(-c3cccc4c(C#N)c(-c5cnn(C)c5)ncc34)nn2C2CCOCC2)C1 [Example 32, 8-(5-acetyl-1-(tetrahydro-2H-pyran-4-yl)-4,5,6,7-tetrahydro-1H-pyrazolo[4,3-c]pyridin-3-yl)-3-(1-methyl-1H-pyrazol-4-yl)isoquinoline-4-carbonitrile]
IC50: 0.0728 µM

CNC(=O)N1CCc2c(c(-c3cccc4cc(-c5cnc(C)s5)ncc34)nn2C2CCN(C(C)=O)CC2)C1 [Example 46, 1-(1-acetylpiperidin-4-yl)-N-methyl-3-(3-(2-methylthiazol-5-yl)isoquinolin-8-yl)-6,7-dihydro-1H-pyrazolo[4,3-c]pyridine-5(4H)-carboxamide]
IC50: 0.00903 µM

CNC(=O)N1CCc2c(c(-c3c(F)ccc4cc(-c5cnn(C)c5)ncc34)nn2C2CCOCC2)C1 [Example 91]
IC50: 0.0283 µM

CNC(=O)c1ccc(-c2cc3ccc(F)c(-c4nn(C5CCOCC5)c5c4CN(C(C)=O)CC5)c3cn2)cn1 [Example 86]
IC50: 0.0305 µM

CNC(=O)N1CCc2c(c(-c3cccc4c3CC(C)N(c3cnn(C)c3)C4)nn2C2CCOCC2)C1 (centres unmarked) [Example 38, N-methyl-3-(3-methyl-2-(1-methyl-1H-pyrazol-4-yl)-1,2,3,4-tetrahydroisoquinolin-5-yl)-1-(tetrahydro-2H-pyran-4-yl)-6,7-dihydro-1H-pyrazolo[4,3-c]pyridine-5(4H)-carboxamide]
IC50: 1.43 µM

CNC(=O)c1ccc(-c2cc3cccc(-c4nn(C5CCOCC5)c5c4CN(C(=O)NC)CC5)c3cn2)cn1 [Example 92]
IC50: 0.00735 µM

CC(=O)N1CCc2c(c(-c3cccc4cc(N5CC[C@H](C)C5)ncc34)nn2C2CCOCC2)C1 [Example 119]
IC50: 1.18 µM

CC(=O)N1CCc2c(c(-c3cccc4ccccc34)nn2C2CCOCC2)C1 [Example 133]
IC50: 0.623 µM

CNC(=O)N1CCc2c(c(-c3cccc4cc(-c5cnc(C)s5)ncc34)nn2C2CCOCC2)C1 [Example 94]
IC50: 0.00722 µM

COc1ccc(-c2nc3c(-c4nn(C5CCOCC5)c5c4CN(C(C)=O)CC5)cccc3o2)cc1 [Example 21, 1-(3-(2-(4-methoxyphenyl)benzo[d]oxazol-4-yl)-1-(tetrahydro-2H-pyran-4-yl)-1,4,6,7-tetrahydro-5H-pyrazolo[4,3-c]pyridin-5-yl)ethan-1-one]
IC50: 6.16 µM

CC(=O)N1CCc2c(c(-c3cccc4cc(N5CCC(C)(C)C5)ncc34)nn2C2CCOCC2)C1 [Example 121]
IC50: 1.12 µM

CC(=O)N1CCc2c(c(-c3cccc4cc(N5C[C@@H](F)[C@@H](F)C5)ncc34)nn2C2CCOCC2)C1 [Example 122]
IC50: 0.563 µM

CNC(=O)N1CCc2c(c(-c3ccc(C)c4cc(-c5cnn(C)c5)ncc34)nn2C2CCOCC2)C1 [Example 10, N-methyl-3-(5-methyl-3-(1-methyl-1H-pyrazol-4-yl)isoquinolin-8-yl)-1-(tetrahydro-2H-pyran-4-yl)-6,7-dihydro-1H-pyrazolo[4,3-c]pyridine-5(4H)-carboxamide]
IC50: 0.0153 µM

CC(=O)N1CCc2c(c(-c3cccc4cc(N5CCCC5)ncc34)nn2C2CCOCC2)C1 [Example 129]
IC50: 0.605 µM

CC(=O)N1CCc2c(c(-c3c(F)ccc4cc(-c5cnn(C)c5)ncc34)nn2C2CCOCC2)C1 [Example 85]
IC50: 0.052 µM

CC(=O)N1CCc2c(c(-c3cccc4cc(N5CCCC5(C)C)ncc34)nn2C2CCOCC2)C1 [Example 123]
IC50: 2.49 µM

CNC(=O)c1ccc(-c2ncc3c(-c4nn(C5CCOCC5)c5c4CN(C(C)=O)CC5)cccc3c2F)cn1 [Example 24, 5-(8-(5-acetyl-1-(tetrahydro-2H-pyran-4-yl)-4,5,6,7-tetrahydro-1H-pyrazolo[4,3-c]pyridin-3-yl)-4-fluoroisoquinolin-3-yl)-N-methylpicolinamide]
IC50: 0.0263 µM

CO[C@@H]1CCN(c2cc3cccc(-c4nn(C5CCOCC5)c5c4CN(C(C)=O)CC5)c3cn2)C1 [Example 111]
IC50: 0.152 µM

CCc1cc(-c2nn(C3CCOCC3)c3c2CN(C(C)=O)CC3)c2cnc(-c3cnn(C)c3)cc2c1 [Example 31, 1-(3-(6-ethyl-3-(1-methyl-1H-pyrazol-4-yl)isoquinolin-8-yl)-1-(tetrahydro-2H-pyran-4-yl)-6,7-dihydro-1H-pyrazolo[4,3-c]pyridin-5(4H)-yl)ethanone]
IC50: 0.0646 µM

CNC(=O)N1CCc2c(C(C)C)nn(-c3cccc4cc(-c5cnn(C)c5)ncc34)c2C1 [Example 47, 3-isopropyl-N-methyl-1-(3-(1-methyl-1H-pyrazol-4-yl)isoquinolin-8-yl)-4,5-dihydro-1H-pyrazolo[3,4-c]pyridine-6(7H)-carboxamide]
IC50: 0.0619 µM

CC(=O)N1CCc2c(c(-c3cc(Cl)cc4cc(-c5cnn(C)c5)ncc34)nn2C2CCOCC2)C1 [Example 30, 1-(3-(6-chloro-3-(1-methyl-1H-pyrazol-4-yl)isoquinolin-8-yl)-1-(tetrahydro-2H-pyran-4-yl)-6,7-dihydro-1H-pyrazolo[4,3-c]pyridin-5 (4H)-yl)ethanone]
IC50: 0.198 µM

CC(=O)N1CCc2c(c(-c3cccc4cc(-c5cn(C)nc5C#N)ncc34)nn2C2CCOCC2)C1 [Example 11, 4-(8-(5-acetyl-1-(tetrahydro-2H-pyran-4-yl)-4,5,6,7-tetrahydro-1H-pyrazolo[4,3-c]pyridin-3-yl)isoquinolin-3-yl)-1-methyl-1H-pyrazole-3-carbonitrile]
IC50: 0.114 µM

CO[C@H]1CCN(c2cc3cccc(-c4nn(C5CCOCC5)c5c4CN(C(C)=O)CC5)c3cn2)C1 [Example 112]
IC50: 0.249 µM

CNC(=O)N1CCc2c(c(-c3cccc4cc(-c5cnn(C)c5)ncc34)c(C#N)n2C2CCOCC2)C1 [Example 49, 2-cyano-N-methyl-3-(3-(1-methyl-1H-pyrazol-4-yl)isoquinolin-8-yl)-1-(tetrahydro-2H-pyran-4-yl)-6,7-dihydro-1H-pyrrolo[3,2-c]pyridine-5(4H)-carboxamide]
IC50: 0.0559 µM

CNC(=O)N1CCc2c(c(-c3cccc4cc(-c5cnc(C)s5)ncc34)nn2C2CC[S+]([O-])CC2)C1 (centres unmarked) [Example 45, N-methyl-3-(3-(2-methylthiazol-5-yl)isoquinolin-8-yl)-1-(1-oxidotetrahydro-2H-thiopyran-4-yl)-6,7-dihydro-1H-pyrazolo[4,3-c]pyridine-5(4H)-carboxamide]
IC50: 0.481 µM

CC(=O)N1CCc2c(c(-c3cc(C)cc4cc(-c5cnn(C)c5)ncc34)nn2C2CCOCC2)C1 [Example 83]
IC50: 0.0662 µM

CC(=O)N1CCc2c(c(-c3cccc4cc(N5CCC[C@H]5C)ncc34)nn2C2CCOCC2)C1 [Example 113]
IC50: 0.863 µM

CC(=O)N1CCc2c(c(-c3cccc4cc(-c5cnn(C)c5)ncc34)cn2C2CCOCC2)C1 [Example 53, 1-(3-(3-(1-methyl-1H-pyrazol-4-yl)isoquinolin-8-yl)-1-(tetrahydro-2H-pyran-4-yl)-1,4,6,7-tetrahydro-5H-pyrrolo[3,2-c]pyridin-5-yl)ethan-1-one]
IC50: 0.052 µM

CC(=O)N1CCc2c(c(-c3csc4ccccc34)nn2C2CCOCC2)C1 [Example 135]
IC50: 1.01 µM

CC(=O)N1CCc2c(c(-c3cccc4cc(N5CCC(C(=O)N(C)C)C5)ncc34)nn2C2CCOCC2)C1 (centres unmarked) [Example 120]
IC50: 0.119 µM

CC(=O)N1CCc2c(c(-c3cccc4[nH]ncc34)nn2C2CCOCC2)C1 [Example 140]
IC50: 2.71 µM

CC(=O)N1CCc2c(c(-c3cccc4cc(N5CC=CC5)ncc34)nn2C2CCOCC2)C1 [Example 124]
IC50: 0.491 µM

CNC(=O)N1CCc2c(N3CCOCC3)nn(-c3cccc4cc(-c5cnn(C)c5)ncc34)c2C1 [Example 48, N-methyl-1-(3-(1-methyl-1H-pyrazol-4-yl)isoquinolin-8-yl)-3-morpholino-4,5-dihydro-1H-pyrazolo[3,4-c]pyridine-6(7H)-carboxamide]
IC50: 0.568 µM

CC(=O)N1CCc2c(c(-c3cccc4cc(N5CC[C@@H](C)C5)ncc34)nn2C2CCOCC2)C1 [Example 118]
IC50: 0.85 µM
